PMC3417418 (2012)

How the values were obtained:
CXCR3 [1] = target: T1, CXCR3 (Homo sapiens, UniProt P49682); experiment: competition with 125I-CXCL10 on L1.2 cells
T1 chain: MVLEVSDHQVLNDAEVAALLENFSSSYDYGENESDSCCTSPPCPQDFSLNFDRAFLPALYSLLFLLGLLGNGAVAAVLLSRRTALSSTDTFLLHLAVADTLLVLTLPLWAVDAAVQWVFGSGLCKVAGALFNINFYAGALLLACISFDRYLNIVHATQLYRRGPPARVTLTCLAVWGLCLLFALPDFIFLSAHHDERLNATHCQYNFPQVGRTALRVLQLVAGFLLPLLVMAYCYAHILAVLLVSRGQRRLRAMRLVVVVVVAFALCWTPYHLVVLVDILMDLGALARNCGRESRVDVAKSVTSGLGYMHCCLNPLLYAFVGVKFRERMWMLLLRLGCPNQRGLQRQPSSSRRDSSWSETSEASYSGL

CXCR3 [2] = target: T2, CXCR3 (Homo sapiens, UniProt P49682); experiment: homologous competition 125I radioligand binding on L1.2 cells
T2 chain: T1 chain with D278N

CXCR3 [3] = target: T1, CXCR3; experiment: as above
CXCR3 [4] = target: T3, CXCR3 (Homo sapiens, UniProt P49682); experiment: as above
T3 chain: T1 chain with D195N

CXCR3 [5] = target: T4, CXCR3 (Homo sapiens, UniProt P49682); experiment: as above
T4 chain: T1 chain with E196Q

B1: CXCL10 (protein)
chain: not shown
CXCR3 [1]
  IC50: 2 nM
CXCR3 [2]
  Kd: 30.9 nM
CXCR3 [3]
  Kd: 4.7 nM
CXCR3 [4]
  Kd: 4.7 nM
CXCR3 [5]
  Kd: 7.6 nM

Positions count from the first letter of the chain named.
